Literature values, collected in paper PMC7997640, “Potential anti-COVID-19 agents, cepharanthine and nelfinavir, and their usage for combination treatment” (iScience, 2021).

System: SARS-CoV-2 spike
Settings: ref Musarrat et al., 2020; cited from earlier work

Cc1c(O)cccc1C(=O)N[C@@H](CSc1ccccc1)[C@H](O)CN1C[C@H]2CCCC[C@H]2C[C@H]1C(=O)NC(C)(C)C [NFV, nelfinavir]
concentration inhibiting SARS-CoV-2 spike-mediated membrane fusion: over 10 μM
